Results reported in PubChem BioAssay AID588855 (National Center for Advancing Translational Sciences (NCATS), 2011).
Hit rate of the full screen: of about 410,000 compounds, about 5,000 (1.2%) were called active. Inconclusive results, whose numbers are uncertain, are shown with a selection of clear calls. Calls come from the whole dose curve; as a rule, active = well fitted inhibition curve with a large enough effect; inconclusive = small, poorly fitted or top-dose-only effect; inactive = no such curve, though single readings can be large or run the other way. Potencies beside an inconclusive call are fits to weak or partial responses and may not hold up.

test: qHTS for Inhibitors of TGF-b; conditions: HepG2 CAGA-GFP TGF-b/SMAD3 reporter, GFP fluorescence, 18 h, TGF-beta stimulated, 500 pg/mL final; series mostly up to 46.1 µM; activity, negative = inhibition: at the top concentration; note: nearly all actives have a fitted effect of over 65% in size
Method in brief: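 Per well, imaged GFP fluorescence of HEPG2 CAGA-GFP cells gives the signal; cells get compound, then TGF-beta (500 pg/mL final), 18 h at 37 degrees C; %Activity versus -TGF-beta and +DMSO controls.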
% is set by controls: 0 for no effect and ±100 for the full control effect; potency is the fitted concentration of half-maximal effect; tags give direction and shape of the fitted curve.

Q: With `Cc1ccc(CN2CCCn3nc(C(=O)NCc4ccc(N(C)C)cc4)cc3C2=O)cc1` as the compound, how does the Potency read?
A: inconclusive: 6.31 µM [inhibitor, partial curve]

Q: With `Cc1cc(Nc2ccc3ccccc3c2)n2ncnc2n1` as the compound, how does the Potency read?
A: inconclusive: 1.26 µM [inhibitor, full curve]

Q: Which “activity, negative = inhibition” value does the source give for `CCCNC(=O)c1ccc(CN2CCc3ccccc3C2)cc1` here?
A: inactive: -0.541%

Q: For `N#Cc1c(-c2ccccc2)nc(-c2ccccc2)nc1N1CCOCC1`, which “activity, negative = inhibition” value is on record?
A: inactive: 8.75%

Q: For `COc1ccc(CCNc2nc3c(-c4cccc(C(F)(F)F)c4)nnn3c3ccccc23)cc1OC`, which Potency is on record?
A: inconclusive: 6.31 µM [inhibitor, single point]

Q: With `CC(C)(CCl)C(=O)Nc1ccnc(-c2ccncc2)n1` as the compound, how does the Potency read?
A: inconclusive: 0.398 µM [inhibitor, full curve, poor fit]

Q: With `Clc1ccc(SCCOCCN2CCc3ccccc3C2)cc1` as the compound, how does the Potency read?
A: inconclusive: 22.4 µM [inhibitor, single point]

Q: With `Cc1ccc(-c2nnc3n2N=C(c2ccccc2Br)CS3)cc1` as the compound, how does the Potency read?
A: inconclusive: 0.708 µM [inhibitor, partial curve, poor fit]

Q: With `COc1ccc(NC(=O)c2cc(C3CCCCN3S(=O)(=O)Cc3ccccc3)on2)c(C)c1` (stereo not given) as the compound, how does the “activity, negative = inhibition” value read?
A: inactive: -10.6%

Q: Which Potency does the source give for `NNC(=O)c1cc(NS(=O)(=O)c2cccs2)cc(NS(=O)(=O)c2cccs2)c1` here?
A: inconclusive: 15.8 µM [inhibitor, single point]

Q: With `O=C(CNc1cc([N+](=O)[O-])ccc1NCCO)Nc1cccc(S(=O)(=O)N2CCCCC2)c1` as the compound, how does the Potency read?
A: inconclusive: 8.91 µM [inhibitor, partial curve, poor fit]

Q: For `COc1ccccc1Nc1nc(-c2ccccc2)nc2ccccc12`, which “activity, negative = inhibition” value is on record?
A: inactive: -1.88%

Q: For `CCOC(=O)C1=C(COc2ccc(F)cc2Cl)NC(=O)NC1c1cc(C)ccc1C` (stereo not given), which “activity, negative = inhibition” value is on record?
A: inactive: -0.0548%

Q: Which Potency does the source give for `COC(=O)CC1C(=O)NC2CCCCC2N1C(=O)c1ccccc1` (stereo not given) here?
A: inconclusive: 0.562 µM [inhibitor, full curve, poor fit]

Q: With `CC(C)Cc1nc(Nc2ccccc2C#N)c2nnn(Cc3ccccc3)c2n1` as the compound, how does the Potency read?
A: inconclusive: 25.1 µM [inhibitor, single point]

Q: Which “activity, negative = inhibition” value does the source give for `CCCn1ccnc1SC(C)C(=O)Nc1c(C)n(C)n(-c2ccccc2)c1=O` (stereo not given) here?
A: inactive: 8.79%

Q: With `CC(C)CCN(C(=O)Nc1ccc(Cl)c(Cl)c1)C1CCN(C(C)C)CC1` as the compound, how does the Potency read?
A: inconclusive: 17.8 µM [inhibitor, single point]

Q: With `COc1ccc(C(O)c2nccn2Cc2ccccc2)cc1` (stereo not given) as the compound, how does the “activity, negative = inhibition” value read?
A: inactive: -3.84%

Q: With `CC(=O)Nc1cccc(NC(=O)CSc2nccn2Cc2ccc3c(c2)OCO3)c1` as the compound, how does the Potency read?
A: inconclusive: 12.6 µM [inhibitor, single point]

Q: Which Potency does the source give for `COc1cc2nc3occc3c(OC)c2cc1OC` here?
A: inconclusive: 6.31 µM [inhibitor, single point]
